Experimental data published in the supplement of paper PMC5895741.

B1: MS2 coat protein; the commonest letter at each place (parent)
chain: MASNFTQFVLVDNGGTGDVTVAPSNFANGVAEWISSNSRSQAYKVTCSVRQSSAQNRKYTIKVEVPKVATQTVGGVELPVAAWRSYLNMELTIPIFATNSDCELIVKAMQGLLKDGNPIPSAIAANSGIY

Variants of: B1
Assay: apparent fitness score (VLP assembly selection enrichment vs plasmid library) (log10 ratio); higher = better expression / assembly into well-formed VLPs
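Further: counts from Illumina MiSeq reads, cDNA of packaged RNA versus plasmid DNA taken before selection, each replicate independent from library construction onward, expression induced with 0.1% arabinose.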

| Variant | apparent fitness score (log10) |
| --- | --- |
| MASNFTQFVLVDNGGTGDVTVAPSNFANGVAEWISSNSRSQAYKVTCSVRQSSAQNRKYTIKVEVPKVATQTVGGVELPVAAWRSYLNMELTIPIFATNSDCELIVKAMQGSLKDGNPIPSAIAANSGIY [L112S] | -1.56 |
| MASNFTQFVLVDNGGTGDVTVAPSNFANGVAEWISSNSRSQAYKVTCSVRQSSAQNRKYTIKVEVPKVATQTVGGVELPVAAWRSYLNMELTIPIFATNSDCELIVKAMQGTLKDGNPIPSAIAANSGIY [L112T] | -0.0785 |
| MASNFTQFVLVDNGGTGDVTVAPSNFANGVAEWISSNSRSQAYKVTCSVRQSSAQNRKYTIKVEVPKVATQTVGGVELPVAAWRSYLNMELTIPIFATNSDCELIVKAMQGVLKDGNPIPSAIAANSGIY [L112V] | 0.899 |
| MASNFTQFVLVDNGGTGDVTVAPSNFANGVAEWISSNSRSQAYKVTCSVRQSSAQNRKYTIKVEVPKVATQTVGGVELPVAAWRSYLNMELTIPIFATNSDCELIVKAMQGWLKDGNPIPSAIAANSGIY [L112W] | < -4 |
| MASNFTQFVLVDNGGTGDVTVAPSNFANGVAEWISSNSRSQAYKVTCSVRQSSAQNRKYTIKVEVPKVATQTVGGVELPVAAWRSYLNMELTIPIFATNSDCELIVKAMQGYLKDGNPIPSAIAANSGIY [L112Y] | -1.51 |
| MASNFTQFVLVDNGGTGDVTVAPSNFANGVAEWISSNSRSQAYKVTCSVRQSSAQNRKYTIKVEVPKVATQTVGGVELPVAAWRSYLNMELTIPIFATNSDCELIVKAMQGLAKDGNPIPSAIAANSGIY [L113A] | -1.43 |
| MASNFTQFVLVDNGGTGDVTVAPSNFANGVAEWISSNSRSQAYKVTCSVRQSSAQNRKYTIKVEVPKVATQTVGGVELPVAAWRSYLNMELTIPIFATNSDCELIVKAMQGLCKDGNPIPSAIAANSGIY [L113C] | 0.133 |
| MASNFTQFVLVDNGGTGDVTVAPSNFANGVAEWISSNSRSQAYKVTCSVRQSSAQNRKYTIKVEVPKVATQTVGGVELPVAAWRSYLNMELTIPIFATNSDCELIVKAMQGLDKDGNPIPSAIAANSGIY [L113D] | < -4 |
| MASNFTQFVLVDNGGTGDVTVAPSNFANGVAEWISSNSRSQAYKVTCSVRQSSAQNRKYTIKVEVPKVATQTVGGVELPVAAWRSYLNMELTIPIFATNSDCELIVKAMQGLEKDGNPIPSAIAANSGIY [L113E] | < -4 |
| MASNFTQFVLVDNGGTGDVTVAPSNFANGVAEWISSNSRSQAYKVTCSVRQSSAQNRKYTIKVEVPKVATQTVGGVELPVAAWRSYLNMELTIPIFATNSDCELIVKAMQGLFKDGNPIPSAIAANSGIY [L113F] | -0.201 |
| MASNFTQFVLVDNGGTGDVTVAPSNFANGVAEWISSNSRSQAYKVTCSVRQSSAQNRKYTIKVEVPKVATQTVGGVELPVAAWRSYLNMELTIPIFATNSDCELIVKAMQGLGKDGNPIPSAIAANSGIY [L113G] | -1.09 |
| MASNFTQFVLVDNGGTGDVTVAPSNFANGVAEWISSNSRSQAYKVTCSVRQSSAQNRKYTIKVEVPKVATQTVGGVELPVAAWRSYLNMELTIPIFATNSDCELIVKAMQGLHKDGNPIPSAIAANSGIY [L113H] | -0.641 |
| MASNFTQFVLVDNGGTGDVTVAPSNFANGVAEWISSNSRSQAYKVTCSVRQSSAQNRKYTIKVEVPKVATQTVGGVELPVAAWRSYLNMELTIPIFATNSDCELIVKAMQGLIKDGNPIPSAIAANSGIY [L113I] | 0.66 |
| MASNFTQFVLVDNGGTGDVTVAPSNFANGVAEWISSNSRSQAYKVTCSVRQSSAQNRKYTIKVEVPKVATQTVGGVELPVAAWRSYLNMELTIPIFATNSDCELIVKAMQGLKKDGNPIPSAIAANSGIY [L113K] | -1.55 |
| MASNFTQFVLVDNGGTGDVTVAPSNFANGVAEWISSNSRSQAYKVTCSVRQSSAQNRKYTIKVEVPKVATQTVGGVELPVAAWRSYLNMELTIPIFATNSDCELIVKAMQGLMKDGNPIPSAIAANSGIY [L113M] | 0.726 |
| MASNFTQFVLVDNGGTGDVTVAPSNFANGVAEWISSNSRSQAYKVTCSVRQSSAQNRKYTIKVEVPKVATQTVGGVELPVAAWRSYLNMELTIPIFATNSDCELIVKAMQGLNKDGNPIPSAIAANSGIY [L113N] | < -4 |
| MASNFTQFVLVDNGGTGDVTVAPSNFANGVAEWISSNSRSQAYKVTCSVRQSSAQNRKYTIKVEVPKVATQTVGGVELPVAAWRSYLNMELTIPIFATNSDCELIVKAMQGLPKDGNPIPSAIAANSGIY [L113P] | -1.1 |
| MASNFTQFVLVDNGGTGDVTVAPSNFANGVAEWISSNSRSQAYKVTCSVRQSSAQNRKYTIKVEVPKVATQTVGGVELPVAAWRSYLNMELTIPIFATNSDCELIVKAMQGLQKDGNPIPSAIAANSGIY [L113Q] | < -4 |
| MASNFTQFVLVDNGGTGDVTVAPSNFANGVAEWISSNSRSQAYKVTCSVRQSSAQNRKYTIKVEVPKVATQTVGGVELPVAAWRSYLNMELTIPIFATNSDCELIVKAMQGLRKDGNPIPSAIAANSGIY [L113R] | -1.29 |
| MASNFTQFVLVDNGGTGDVTVAPSNFANGVAEWISSNSRSQAYKVTCSVRQSSAQNRKYTIKVEVPKVATQTVGGVELPVAAWRSYLNMELTIPIFATNSDCELIVKAMQGLSKDGNPIPSAIAANSGIY [L113S] | < -4 |
| MASNFTQFVLVDNGGTGDVTVAPSNFANGVAEWISSNSRSQAYKVTCSVRQSSAQNRKYTIKVEVPKVATQTVGGVELPVAAWRSYLNMELTIPIFATNSDCELIVKAMQGLTKDGNPIPSAIAANSGIY [L113T] | 0.626 |
| MASNFTQFVLVDNGGTGDVTVAPSNFANGVAEWISSNSRSQAYKVTCSVRQSSAQNRKYTIKVEVPKVATQTVGGVELPVAAWRSYLNMELTIPIFATNSDCELIVKAMQGLVKDGNPIPSAIAANSGIY [L113V] | 0.448 |

| Variant | apparent fitness score (log10) |
| --- | --- |
| MASNFTQFVLVDNGGTGDVTVAPSNFANGVAEWISSNSRSQAYKVTCSVRQSSAQNRKYTIKVEVPKVATQTVGGVELPVAAWRSYLNMELTIPIFATNSDCELIVKAMQGLWKDGNPIPSAIAANSGIY [L113W] | 0.767 |
| MASNFTQFVLVDNGGTGDVTVAPSNFANGVAEWISSNSRSQAYKVTCSVRQSSAQNRKYTIKVEVPKVATQTVGGVELPVAAWRSYLNMELTIPIFATNSDCELIVKAMQGLYKDGNPIPSAIAANSGIY [L113Y] | 0.107 |
| MASNFTQFVLVDNGGTGDVTVAPSNFANGVAEWISSNSRSQAYKVTCSVRQSSAQNRKYTIKVEVPKVATQTVGGVELPVAAWRSYLNMELTIPIFATNSDCELIVKAMQGLLADGNPIPSAIAANSGIY [K114A] | 0.882 |
| MASNFTQFVLVDNGGTGDVTVAPSNFANGVAEWISSNSRSQAYKVTCSVRQSSAQNRKYTIKVEVPKVATQTVGGVELPVAAWRSYLNMELTIPIFATNSDCELIVKAMQGLLCDGNPIPSAIAANSGIY [K114C] | -0.59 |
| MASNFTQFVLVDNGGTGDVTVAPSNFANGVAEWISSNSRSQAYKVTCSVRQSSAQNRKYTIKVEVPKVATQTVGGVELPVAAWRSYLNMELTIPIFATNSDCELIVKAMQGLLDDGNPIPSAIAANSGIY [K114D] | < -4 |
| MASNFTQFVLVDNGGTGDVTVAPSNFANGVAEWISSNSRSQAYKVTCSVRQSSAQNRKYTIKVEVPKVATQTVGGVELPVAAWRSYLNMELTIPIFATNSDCELIVKAMQGLLEDGNPIPSAIAANSGIY [K114E] | -1.33 |
| MASNFTQFVLVDNGGTGDVTVAPSNFANGVAEWISSNSRSQAYKVTCSVRQSSAQNRKYTIKVEVPKVATQTVGGVELPVAAWRSYLNMELTIPIFATNSDCELIVKAMQGLLFDGNPIPSAIAANSGIY [K114F] | < -4 |
| MASNFTQFVLVDNGGTGDVTVAPSNFANGVAEWISSNSRSQAYKVTCSVRQSSAQNRKYTIKVEVPKVATQTVGGVELPVAAWRSYLNMELTIPIFATNSDCELIVKAMQGLLGDGNPIPSAIAANSGIY [K114G] | -0.76 |
| MASNFTQFVLVDNGGTGDVTVAPSNFANGVAEWISSNSRSQAYKVTCSVRQSSAQNRKYTIKVEVPKVATQTVGGVELPVAAWRSYLNMELTIPIFATNSDCELIVKAMQGLLHDGNPIPSAIAANSGIY [K114H] | 0.695 |
| MASNFTQFVLVDNGGTGDVTVAPSNFANGVAEWISSNSRSQAYKVTCSVRQSSAQNRKYTIKVEVPKVATQTVGGVELPVAAWRSYLNMELTIPIFATNSDCELIVKAMQGLLIDGNPIPSAIAANSGIY [K114I] | -0.223 |
| MASNFTQFVLVDNGGTGDVTVAPSNFANGVAEWISSNSRSQAYKVTCSVRQSSAQNRKYTIKVEVPKVATQTVGGVELPVAAWRSYLNMELTIPIFATNSDCELIVKAMQGLLLDGNPIPSAIAANSGIY [K114L] | < -4 |
| MASNFTQFVLVDNGGTGDVTVAPSNFANGVAEWISSNSRSQAYKVTCSVRQSSAQNRKYTIKVEVPKVATQTVGGVELPVAAWRSYLNMELTIPIFATNSDCELIVKAMQGLLMDGNPIPSAIAANSGIY [K114M] | < -4 |
| MASNFTQFVLVDNGGTGDVTVAPSNFANGVAEWISSNSRSQAYKVTCSVRQSSAQNRKYTIKVEVPKVATQTVGGVELPVAAWRSYLNMELTIPIFATNSDCELIVKAMQGLLNDGNPIPSAIAANSGIY [K114N] | 0.32 |
| MASNFTQFVLVDNGGTGDVTVAPSNFANGVAEWISSNSRSQAYKVTCSVRQSSAQNRKYTIKVEVPKVATQTVGGVELPVAAWRSYLNMELTIPIFATNSDCELIVKAMQGLLPDGNPIPSAIAANSGIY [K114P] | < -4 |
| MASNFTQFVLVDNGGTGDVTVAPSNFANGVAEWISSNSRSQAYKVTCSVRQSSAQNRKYTIKVEVPKVATQTVGGVELPVAAWRSYLNMELTIPIFATNSDCELIVKAMQGLLQDGNPIPSAIAANSGIY [K114Q] | 0.579 |
| MASNFTQFVLVDNGGTGDVTVAPSNFANGVAEWISSNSRSQAYKVTCSVRQSSAQNRKYTIKVEVPKVATQTVGGVELPVAAWRSYLNMELTIPIFATNSDCELIVKAMQGLLRDGNPIPSAIAANSGIY [K114R] | 0.737 |
| MASNFTQFVLVDNGGTGDVTVAPSNFANGVAEWISSNSRSQAYKVTCSVRQSSAQNRKYTIKVEVPKVATQTVGGVELPVAAWRSYLNMELTIPIFATNSDCELIVKAMQGLLSDGNPIPSAIAANSGIY [K114S] | 0.546 |
| MASNFTQFVLVDNGGTGDVTVAPSNFANGVAEWISSNSRSQAYKVTCSVRQSSAQNRKYTIKVEVPKVATQTVGGVELPVAAWRSYLNMELTIPIFATNSDCELIVKAMQGLLTDGNPIPSAIAANSGIY [K114T] | -0.217 |
| MASNFTQFVLVDNGGTGDVTVAPSNFANGVAEWISSNSRSQAYKVTCSVRQSSAQNRKYTIKVEVPKVATQTVGGVELPVAAWRSYLNMELTIPIFATNSDCELIVKAMQGLLVDGNPIPSAIAANSGIY [K114V] | -0.548 |
| MASNFTQFVLVDNGGTGDVTVAPSNFANGVAEWISSNSRSQAYKVTCSVRQSSAQNRKYTIKVEVPKVATQTVGGVELPVAAWRSYLNMELTIPIFATNSDCELIVKAMQGLLWDGNPIPSAIAANSGIY [K114W] | -0.635 |
| MASNFTQFVLVDNGGTGDVTVAPSNFANGVAEWISSNSRSQAYKVTCSVRQSSAQNRKYTIKVEVPKVATQTVGGVELPVAAWRSYLNMELTIPIFATNSDCELIVKAMQGLLYDGNPIPSAIAANSGIY [K114Y] | -0.118 |
| MASNFTQFVLVDNGGTGDVTVAPSNFANGVAEWISSNSRSQAYKVTCSVRQSSAQNRKYTIKVEVPKVATQTVGGVELPVAAWRSYLNMELTIPIFATNSDCELIVKAMQGLLKCGNPIPSAIAANSGIY [D115C] | -1.28 |
